# Assay results published in PubChem BioAssay (Tox21).
# Where “and” joins values, the source holds several entries; their conditions need not be identical. Equal values may be shown once. This list was built around the results that the source calls inconclusive (neither active nor inactive); the mix of calls is not that of the screen. For some of these results: Potencies of inconclusive entries are doubtful fits and often do not repeat. Calls of active or inactive are those of the source. Unless noted, the call rests on the fitted dose curve; in most records, active means well fitted curve in the direction sought with a large enough effect in the repeat runs; inconclusive means weak or mixed curves; inactive means no such curve, though single readings can be large; an effect the other way counts as inactive or inconclusive.
# Tests used:
# [1] = qHTS assay to identify small molecule antagonists of the retinoid acid receptor (RAR) signaling pathway - cell viability counter screen (AID 1159551); further: nearly all actives have a fitted effect of over 35% in size
# In short: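 Viability of C3RL4 cells is quantified from ATP by luminescence after 6 h treatment at 37 C with compounds and 1 uM retinol.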
# [2] = qHTS assay to identify small molecule antagonists of the retinoic acid receptor (RAR) signaling pathway (AID 1159552; further: nearly all actives have a fitted effect of over 50% in size)
# In short: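 Test chemicals and DMSO controls were pin-transferred onto C3RL4 cells a day after seeding; retinol (1 uM final) followed at once. Luminescent reporter output was quantified after 6 hr of co-incubation and 30 min with detection reagent.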
# [3] = qHTS assay to identify small molecule agonists of the retinoic acid receptor (RAR) signaling pathway (AID 1159553); conditions: C3RL4 RARE luciferase reporter, agonist, 6 h; activation: at 73.3 µM (top of the series) unless noted
# In short: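 Compounds dissolved in DMSO were pinned onto C3RL4 cells seeded the previous day, and plates were held 6 hr at 37 C. RARE-driven luciferase output was then read by luminescence.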
# [4] = qHTS assay to identify small molecule antagonists of the estrogen related receptor signaling pathway with the pleiotropic PPARgamma coactivator (PGC) from Tox21 10K library - cell viability counter screen (AID 1224840; active means well fitted cell-killing curve with a large enough effect in the repeat runs, not every such curve was filed as active; inconclusive means weak or mixed curves, or effect the other way; inactive means no such curve, though single readings can be large or run the other way; further: nearly all actives have a fitted effect of over 40% in size)
# In short: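 Viability counter screen, PGC/ERR cells: 17.5 h compound exposure at 37 C, CellTiter-Fluor fluorescence endpoint.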
# [5] = biological target: Thyrotropin receptor (Homo sapiens) (UniProt P16473); assay: qHTS assay to identify small molecule agonists of the thyroid stimulating hormone receptor (TSHR) signaling pathway (AID 1224843; calls by dose curve; further: nearly all actives have a fitted effect of over 45% in size); conditions: TSHR-HEK293 cells, cAMP HTRF, agonist mode, 30 min; activation: at 92.4 µM (top of the series) unless noted
# Chain of UniProt P16473 (P16473 whole entry, looked up): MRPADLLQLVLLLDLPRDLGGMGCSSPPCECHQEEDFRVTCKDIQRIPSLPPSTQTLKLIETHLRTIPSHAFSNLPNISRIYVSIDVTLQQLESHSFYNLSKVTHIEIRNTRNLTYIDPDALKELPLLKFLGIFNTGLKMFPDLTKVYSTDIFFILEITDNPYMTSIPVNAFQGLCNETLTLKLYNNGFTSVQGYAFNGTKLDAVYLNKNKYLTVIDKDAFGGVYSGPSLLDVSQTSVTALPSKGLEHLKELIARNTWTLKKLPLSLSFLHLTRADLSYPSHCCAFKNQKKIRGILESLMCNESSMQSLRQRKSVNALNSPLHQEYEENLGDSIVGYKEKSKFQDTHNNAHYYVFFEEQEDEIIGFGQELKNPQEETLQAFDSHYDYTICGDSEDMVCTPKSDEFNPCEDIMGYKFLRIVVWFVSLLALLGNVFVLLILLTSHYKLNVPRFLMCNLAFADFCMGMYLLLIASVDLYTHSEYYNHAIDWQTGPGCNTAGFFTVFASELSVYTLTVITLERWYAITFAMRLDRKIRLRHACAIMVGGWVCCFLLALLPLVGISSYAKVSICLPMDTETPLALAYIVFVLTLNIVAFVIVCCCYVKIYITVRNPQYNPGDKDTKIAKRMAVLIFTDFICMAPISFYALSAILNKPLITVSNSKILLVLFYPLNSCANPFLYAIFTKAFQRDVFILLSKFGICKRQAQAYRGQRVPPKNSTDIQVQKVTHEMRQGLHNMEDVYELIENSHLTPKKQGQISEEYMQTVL
# In short: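 Agonist-mode screen: TSHR HEK293 cells received test chemicals for half an hour at room temperature, then HTRF cAMP detection reagents for one hour prior to fluorescence measurement. Each chemical ran as a 15-concentration series, triplicated.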
# [6] = qHTS assay to identify small molecule agonists of the hypoxia (HIF-1) signaling pathway - cell viability counter screen (AID 1224844; calls by dose curve; further: nearly all actives have a fitted effect of over 50% in size)
# In short: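 Same wells as the HIF-1 reporter screen; ME-180 cells carrying HRE-bla, 17 hr treatment at 37C; CellTiter-Glo luminescence read after 30 min at room temperature.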
# [7] = qHTS assay to identify small molecule agonists of the constitutive androstane receptor (CAR) signaling pathway - cell viability counter screen (AID 1224836); further: nearly all actives have a fitted effect of over 45% in size
# In short: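 23 h treatment, 37 C, 5% CO2. Cell line: HepG2 stably expressing hCAR with a CYP2B6-2.2kb construct. Co-treatment: PK11195, 0.75 uM final. Read-out: CellTiter-Fluor fluorescence intensity.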
# [8] = qHTS assay to identify small molecule antagonists of the estrogen related receptor signaling pathway with the pleiotropic PPARgamma coactivator (PGC) from Tox21 10K library (AID 1224841; call rule not given here; further: actives are mostly falling curves and most rising ones were filed inactive; nearly all actives have a fitted effect of over 50% in size)
# In short: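 In the PGC/ERR line, DMSO solutions of test chemicals are pin-delivered to 2,000 cells/well six hours after dispensing. Following eighteen hours' incubation, One-Glo reagent is added and luminescence recorded.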
# [9] = biological target: Nuclear receptor subfamily 1 group I member 3 (Homo sapiens) (UniProt Q14994); assay: qHTS assay to identify small molecule antagonists of the constitutive androstane receptor (CAR) signaling pathway (AID 1224838); further: nearly all actives have a fitted effect of over 40% in size
# Chain of UniProt Q14994 (Q14994 whole entry, looked up): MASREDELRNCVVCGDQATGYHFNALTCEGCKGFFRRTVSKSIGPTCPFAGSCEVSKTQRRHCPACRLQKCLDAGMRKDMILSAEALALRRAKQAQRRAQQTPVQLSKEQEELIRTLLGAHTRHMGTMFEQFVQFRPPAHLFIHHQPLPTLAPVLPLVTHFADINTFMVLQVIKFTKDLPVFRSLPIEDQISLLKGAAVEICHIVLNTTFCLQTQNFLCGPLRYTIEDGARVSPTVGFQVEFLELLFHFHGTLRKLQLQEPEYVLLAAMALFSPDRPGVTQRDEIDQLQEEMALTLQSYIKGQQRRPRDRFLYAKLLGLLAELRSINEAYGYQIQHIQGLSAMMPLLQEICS
# In short: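 CITCO-stimulated (50 nM final) HepG2 cells stably transfected with hCAR and CYP2B6-2.2kb luciferase were exposed to compounds at 15 concentrations for 24 h at 37 C/5% CO2. A luciferase reagent was added and luminescence recorded after 30 min.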
# [10] = qHTS assay to identify small molecule agonists of the estrogen related receptor signaling pathway with the pleiotropic PPARgamma coactivator (PGC) from Tox21 10K library (AID 1224842); further: nearly all actives have a fitted effect of over 15% in size
# In short: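 PGC/ERR reporter cell line, 2,000 cells per well, incubated 6 h at 37 C before 23 nL compound in DMSO was added. After 18 h at 37 C, One-Glo luminescence read following 30 min at room temperature.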
# [11] = qHTS assay to identify small molecule antagonists of the estrogen related receptor (ERR) signaling pathway from Tox21 library - cell viability counter screen (AID 1224834); further: nearly all actives have a fitted effect of over 30% in size
# In short: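 In this quantitative HTS format, ERR cells receive compounds in DMSO and are incubated for 17.5 h at 37 C. Live-cell protease activity is then detected with CellTiter-Fluor.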
# [12] = qHTS assay to identify small molecule antagonists of the constitutive androstane receptor (CAR) signaling pathway - cell viability counter screen (AID 1224837); further: nearly all actives have a fitted effect of over 45% in size
# In short: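 In quantitative HTS format, compounds at 15 concentrations were applied to HepG2 cells double-transfected with hCAR and CYP2B6-2.2kb under 50 nM CITCO stimulation; live-cell protease activity was read after 23 hr via CellTiter-Fluor.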
# [13] = qHTS assay to identify small molecule antagonists of the estrogen related receptor (ERR) signaling pathway - cell viability counter screen (AID 1224818)
# In short: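 Cytotoxicity check run alongside the ERR antagonist screen: cells exposed to test compounds 17.5 h at 37 C, viability taken as CellTiter-Fluor fluorescence intensity.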
# [14] = qHTS assay to identify small molecule antagonists of the estrogen related receptor signaling pathway with the pleiotropic PPARgamma coactivator (PGC) cell viability counter screen (AID 1224822)
# In short: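 Viable cell signal (CellTiter-Fluor, 30 min, 37 C/5% CO2) was measured in PGC/ERR cells after a 17.5 h compound incubation.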
# Potency means the concentration at half of the fitted maximal effect; tags describe the fitted curve by direction and shape or compound fluorescence and quenching.
structure (smiles),measurement,setting,value
CCN(Cc1cccc(S(=O)(=O)O)c1)c1ccc(C(=C2C=CC(=[N+](CC)Cc3cccc(S(=O)(=O)O)c3)C=C2)c2ccccc2S(=O)(=O)[O-])cc1,Potency,[1],active: 15.4 µM
same,Potency,[2],active: 13.7 µM
same,Potency,[3],inconclusive: 17.3 µM [inhibitor]
same,Potency,[4],active: 27.4 µM
same,Potency,[5],"inconclusive: 6.88 µM [falling, full curve]"
same,Potency,[6],"inconclusive: 31 µM [cytotoxic, partial curve]"
Clc1nc2ccccc2nc1Cl,Potency,[1],"inconclusive: 27.6 µM [cytotoxic, single point]"
same,Potency,[2],"inconclusive: 34.8 µM [inhibitor, partial curve, poor fit]"
NC(N)=NN=C(/C=C/c1ccc([N+](=O)[O-])o1)/C=C/c1ccc([N+](=O)[O-])o1,Potency,[1],active: 13.3 µM
same,Potency,[2],active: 7.5 µM
same,Potency,[3],active: 2.11 µM
same,Potency,[7],active: 3.35 µM
same,Potency,[4],active: 2.98 µM
same,Potency,[8],active: 6.68 µM
O=C(Nc1ccc2c(O)c(N=Nc3ccc(N=Nc4ccc(S(=O)(=O)O)cc4)cc3)c(S(=O)(=O)O)cc2c1)c1ccccc1,Potency,[1],active: 24.3 µM
same,Potency,[2],"inconclusive: 54.5 µM [inhibitor, partial curve, poor fit]"
same,Potency,[7],active: 24.3 µM
same,Potency,[9],"inconclusive: 27.3 µM [inhibitor, partial curve, poor fit]"
same,Potency,[4],active: 24.3 µM
CN1CC[C@H](c2c(O)cc(O)c3c(=O)cc(-c4ccccc4Cl)oc23)[C@H](O)C1,Potency,[1],"inconclusive: 0.531 µM [rising, full curve]"
same,Potency,[2],active: 0.0668 µM
same,Potency,[3],"inconclusive: 0.0668 µM [inhibitor, full curve]"
same,Potency,[7],"inconclusive: 0.0944 µM [cytotoxic, full curve]"
same,Potency,[9],active: 0.596 µM
same,Potency,[10],active: 0.531 µM
COc1ccc2cc(S(=O)(=O)N[C@H](CC(=O)N[C@H](Cc3ccc(CN4[C@H](C)CCC[C@@H]4C)cc3)C(=O)N(C)C(C)C)c3ccc4c(c3)OCO4)ccc2c1,Potency,[1],"inconclusive: 64.9 µM [cytotoxic, single point]"
same,Potency,[2],active: 51.6 µM
same,Potency,[9],active: 41 µM
same,Potency,[8],"inconclusive: 20.5 µM [falling, partial curve, poor fit]"
same,Potency,[6],active: 10.4 µM
CCC(C)(C)C(=O)O[C@H]1C[C@@H](C)C=C2C=C[C@H](C)[C@H](CC[C@@H]3C[C@@H](O)CC(=O)O3)[C@H]21,Potency,[1],inconclusive: 33.5 µM [cytotoxic]
same,Potency,[2],"inconclusive: 27.3 µM [inhibitor, partial curve, poor fit] and inconclusive: 26.6 µM [inhibitor, partial curve, poor fit]"
same,Potency,[3],"inconclusive: 26.6 µM [inhibitor, partial curve]"
same,Potency,[11],"inconclusive: 33.5 µM [cytotoxic, single point]"
same,Potency,[4],inconclusive: 29.8 µM [cytotoxic]
same,Potency,[5],inactive
same,Potency,[6],"inconclusive: 4.36 µM [cytotoxic, full curve, poor fit] and inconclusive: 26.8 µM [cytotoxic, single point]"
Nc1ncnc2nc[nH]c12,Potency,[1],"inconclusive: 4.33 µM [rising, full curve] and inconclusive: 3.76 µM [rising, full curve]"
COC(=O)CS,Potency,[1],inactive
same,Potency,[2],"inconclusive: 26.3 µM [inhibitor, full curve]"
Cc1cc(C)c(O)c(C)c1,Potency,[1],"inconclusive: 77 µM [rising, partial curve, poor fit]"
same,Potency,[3],inactive
Cc1c(C2(c3cc(Br)c(O)c(Br)c3C)OS(=O)(=O)c3ccccc32)cc(Br)c(O)c1Br,Potency,[1],active: 7.47 µM
same,Potency,[2],active: 13.3 µM
same,Potency,[3],"inconclusive: 9.4 µM [inhibitor, partial curve]"
same,Potency,[11],active: 14.9 µM
same,Potency,[7],active: 14.9 µM
same,Potency,[12],active: 18.8 µM
same,Potency,[8],active: 11.8 µM
same,Potency,[5],"inconclusive: 8.38 µM [falling, full curve]"
same,Potency,[6],active: 16.9 µM
FC(F)(F)c1ccccc1Cl,Potency,[1],inactive
CC(C)(C)C1CCC(CC2=C(O)c3ccccc3C(=O)C2=O)CC1 (centres undefined),Potency,[1],"inconclusive: 21.1 µM [cytotoxic, partial curve, poor fit]"
same,Potency,[2],"inconclusive: 18.8 µM [inhibitor, partial curve, poor fit]"
same,Potency,[7],"inconclusive: 26.6 µM [cytotoxic, partial curve]"
same,Potency,[12],"inconclusive: 15 µM [cytotoxic, full curve]"
same,Potency,[4],"inconclusive: 29.8 µM [cytotoxic, partial curve]"
same,Potency,[8],"inconclusive: 4.22 µM [falling, full curve]"
CCN(CC)CCNC(=O)c1c(C)[nH]c(/C=C2\C(=O)Nc3ccc(F)cc32)c1C,Potency,[1],active: 33.5 µM
same,Potency,[3],"inconclusive: 23.7 µM [inhibitor, partial curve]"
same,Potency,[13],inconclusive: 8.74 µM [cytotoxic]
same,Potency,[14],active: 8.74 µM
same,Potency,[9],active: 10.6 µM
same,Potency,[5],"inconclusive: 26.6 µM [falling, partial curve, poor fit]"
